About 540 (0.36%) of roughly 150,000 compounds showed an effect of 50% or more. This is one part of the list.

For this experiment, the system named is Plasmodium falciparum. Briefly: Primary screen in NF54 nanoGlo assay, in single point, at 2uM, 72h; a lower Z score goes with more inhibition. In kind it is functional, Erythrocyte. The conditions noted are these: timepoint 72 hour.
Regarding `O=C(COc1ccc(CO)cc1)N[C@H]1CCC[C@H]1F`, the % Inhibition (in general, the change of the read-out against control, counted positive when it falls) is listed as -11% and the Z score was found to be 1.44.

For the compound `Cc1ccc(-c2noc([C@H]3CC(=O)N(c4ccc5c(c4)OCCO5)C3)n2)cc1`, the “% Inhibition” value is on record as -10% and the Z score came to 1.07.

Turning to `CN(C)c1ccc(C(=O)Nc2ccccc2-c2cn3c(n2)CCCC3)nn1`, the “% Inhibition” value is given as -10% and the Z score was found to be 1.93.

Turning to `O=C(Nc1ccc(N2CCN(C(=O)c3ccco3)CC2)c(Cl)c1)c1ccc2c(c1)OCCO2`, the “% Inhibition” value was -23% and the Z score worked out at 2.57.

As to `O=C(N[C@H]1CCN(CCCc2ccccc2)C1=O)c1ccncc1F`, the “% Inhibition” value is listed as 9% and the Z score is listed as -1.66.

With `CN(C)c1cc(C(=O)OCc2ccc(Cl)cc2)ccn1`, the “% Inhibition” value came to 2% and the Z score was -0.2.

Take `Cc1cc(C)c(CN2CCC(C)CC2)cc1CNCc1csc(N)n1`: the “% Inhibition” value is 6% and the Z score is -1.06.

Turning to `Cc1noc(CNC(=O)Nc2cc(C(C)C)on2)n1`, the “% Inhibition” value was -9% and the Z score is recorded as 1.19.

For the compound `CCC(=O)NCc1ccc(-c2noc(C3(c4ccc(OC)cc4)CC3)n2)s1`, the “% Inhibition” value is -3% and the Z score amounted to 0.46.

As for `CCC(=O)N1CCN(C(=O)c2scnc2C(C)C)C1`, the “% Inhibition” value was -1% and the Z score came out at 0.29.

Regarding `Cc1ccc(S(=O)(=O)N2CCN(C(=O)NCc3nccn3C)CC2)cc1`, the “% Inhibition” value is reported as -12% and the Z score is listed as 2.31.

For `Cc1[nH]ncc1C(=O)Nc1ccc(NC2CCOCC2)cc1`, the “% Inhibition” value is recorded as -7% and the Z score is given as 1.39.

Consider `O=C(O)C1CCCN1C(=O)[C@H]1CC[C@H](c2ccccc2)C1` (stereo partly specified), for which the “% Inhibition” value is recorded as -5% and the Z score is 0.94.

With `COc1cc([C@H]2CC(=O)Nc3c2cnn3Cc2ccccc2Cl)ccc1O`, the “% Inhibition” value is 8% and the Z score is listed as -0.93.

On to `O=C(c1ccc(N2C[C@@H]3c4ccccc4OC[C@]3(CO)C2)nc1)N1CCCC1`, for which the “% Inhibition” value is recorded as -18% and the Z score is 3.13.

Take `Cc1c(S(=O)(=O)Nc2ccc(F)cc2)cc(-c2nc(-c3ccc(F)cc3)cs2)n1C`: the “% Inhibition” value is reported as -14% and the Z score came to 2.07.

Regarding `CS(=O)(=O)c1ccc(NCc2ccc3c(c2)CNC3)c(F)c1`, the “% Inhibition” value was -16% and the Z score is given as 3.2.

Take `CC(=O)N[C@H]1CN(c2nc(C)ccc2C(=O)O)C[C@@H]1c1ccc(C)cc1`: the “% Inhibition” value is listed as 4% and the Z score was -0.56.

As to `CC[C@H](C)NC(=O)Cn1nc2cc(C)nc(N3CCc4ccccc4C3)n2c1=O`, the “% Inhibition” value is on record as -9% and the Z score worked out at 1.4.

Take `CCCc1nc(CNc2cccc(CS(C)(=O)=O)c2C)cs1`: the “% Inhibition” value is 3% and the Z score is -0.34.

`N#Cc1ncn(Cc2nc3cc(C(F)(F)F)ccc3o2)c1C#N`: the “% Inhibition” value turned out to be 8% and the Z score is -0.78.

`O=C(CCc1nnc(CCCCc2ccccc2)o1)N1CCCC[C@H]1c1ccc(F)cc1`: the “% Inhibition” value is -5% and the Z score is recorded as 0.71.

For the compound `COc1ccc(/C=C/c2cc(C(F)(F)F)[nH]c(=O)n2)cc1`, the “% Inhibition” value is reported as -7% and the Z score came out at 1.08.

In the case of `Cn1cc(N2CCN(c3ncc(F)cn3)CC2)cn1`, the “% Inhibition” value is -13% and the Z score is recorded as 1.28.

For the compound `COc1c(F)cccc1CN1CC[C@]2(OC)CC[C@H](Oc3ccccn3)C[C@H]12`, the “% Inhibition” value came out at 6% and the Z score was -1.12.

Take `CC(=Cc1cn(C(C)(C)C)nn1)c1nc(C)c(C#N)c(=O)[nH]1`: the “% Inhibition” value stood at 39% and the Z score is on record as -1.14.

For `C[C@@H](CNC(=O)c1ccnc(N(C)C)c1)Cn1ccnc1`, the “% Inhibition” value is -4% and the Z score worked out at 0.52.

On to `CC(C)(NC(=O)c1cnc2cccnn12)[C@H](O)C(F)(F)F`, for which the “% Inhibition” value is recorded as -15% and the Z score is given as 1.79.

Consider `O=C1c2ccccc2N[C@]2(C(=O)Nc3ccccc32)N1Cc1ccccc1`, for which the “% Inhibition” value was -18% and the Z score is 2.79.

As for `N#Cc1cc(N2CCCN(Cc3ccccc3)CCOCC2)ncn1`, the “% Inhibition” value is -10% and the Z score is 1.3.

Regarding `CC1=NO[C@@H](CNc2nc(C)ns2)C1`, the “% Inhibition” value is listed as -12% and the Z score turned out to be 1.25.

For `COCC[C@@H](COC)NC(=O)c1c[nH]nc1-c1cnn(C)c1`, the “% Inhibition” value is 2% and the Z score was -0.42.

On to `O=C(C[C@@H]1CCN2C[C@@H]1/C=C\COc1ccccc1CN(Cc1ccccc1OC(F)(F)F)CC2=O)N1CC[C@@H](O)C1`, for which the “% Inhibition” value came out at 19% and the Z score is given as -2.27.

In the case of `CCC(CC)c1nc(CN2CCCC2=O)no1`, the “% Inhibition” value came to 7% and the Z score is listed as -0.86.

With `CN(CCOc1ccccc1Cl)Cc1cn(C)nn1`, the “% Inhibition” value was determined as 0% and the Z score is recorded as -0.07.

With `COc1cc2ccccc2cc1C(=O)Nc1ccc2oc(-c3cc(Br)ccc3Cl)nc2c1`, the “% Inhibition” value was -2% and the Z score stood at 0.39.

With `C[C@@H](C(=O)NCC(F)(F)F)N(C)Cc1nnc2ccccn12`, the “% Inhibition” value is listed as 3% and the Z score is -0.39.

On to `Cc1noc(C)c1CCc1nc(-c2ccccc2)nn1C1CCN(C)CC1`, for which the “% Inhibition” value is listed as -6% and the Z score was 0.74.

For `CCCN(Cc1c(-c2ccccc2)nn(C)c1N(C)C)C(=O)c1cccs1`, the “% Inhibition” value is given as -4% and the Z score is listed as 0.84.

In the case of `CCn1cc(S(=O)(=O)N(Cc2ccccc2)c2ccccc2)cn1`, the “% Inhibition” value was -19% and the Z score was 1.9.

Consider `CCN(CC)CCNC(=O)CCCC(=O)NCCc1ccc(Cl)cc1`, for which the “% Inhibition” value came out at 3% and the Z score is -0.42.

For `Cn1cc([C@H]2C[C@@H]2C(=O)NS(=O)(=O)C2CC3CCC2CC3)cn1` (stereo partly specified), the “% Inhibition” value is on record as -1% and the Z score is on record as 0.15.

Take `Cc1noc(CCCC(=O)N2CCN(C3CCCC3O)CC2)n1` (stereo unspecified): the “% Inhibition” value was -26% and the Z score came out at 3.

As for `CC(C)(C)C(NCC1CC1c1ccccc1)C(N)=O` (stereo unspecified), the “% Inhibition” value is listed as 9% and the Z score was -1.77.

As to `Cc1nc(NC(=O)CCNC(=O)C2CC2C)sc1-c1ccccn1` (stereo unspecified), the “% Inhibition” value is given as -5% and the Z score is reported as 0.46.

`C[C@]1(c2nc(C(F)(F)c3ccc(F)cc3)no2)CCNC(=O)C1`: the “% Inhibition” value is on record as -7% and the Z score was found to be 1.14.

Take `CCOc1cc(CNC(=O)c2sc(Nc3ccccc3CC)nc2C)ccc1OC`: the “% Inhibition” value was 2% and the Z score was -0.28.

With `CC(C)(CCOCc1ccccc1)CNCC(C)(C)S(C)(=O)=O`, the “% Inhibition” value was -20% and the Z score is 2.62.

Turning to `CC(C)c1ccc(C#N)c(NCCc2noc(CO)n2)n1`, the “% Inhibition” value stood at 15% and the Z score is listed as -1.92.

As to `Cc1cc(-c2nc3ccccc3s2)ccc1NS(=O)(=O)c1ccc2c(c1)OCCO2`, the “% Inhibition” value is given as 0% and the Z score is on record as -0.03.

For `COc1cccc(C(=O)NCC(=O)N2CCn3c(nc(C)c3C)C2)c1`, the “% Inhibition” value was -5% and the Z score was determined as 0.66.

As for `Cc1ccc(CN2CC[C@H](c3nnc(-c4ccco4)o3)C2)o1`, the “% Inhibition” value was 17% and the Z score was -1.96.

For `Cn1cc(C2C[S+]([O-])CCN2C(=O)c2ccc(CCC(F)(F)F)cc2)cn1` (stereo unspecified), the “% Inhibition” value is on record as -12% and the Z score is 1.11.

For `C/C(C(=O)Nc1ccc(C(=O)c2ccccc2)cc1N)=C(/C)c1nc2ccccc2[nH]1`, the “% Inhibition” value was 7% and the Z score is -1.25.

As to `O=S(=O)(c1c[nH]c2ncncc12)N(CC1CCC1)c1ccccc1`, the “% Inhibition” value is on record as -1% and the Z score was 0.17.

Turning to `Cc1ccc(C(=O)C2CCN(C(=O)[C@H](C)NS(=O)(=O)c3c(C)noc3C)CC2)c(C)c1`, the “% Inhibition” value is 1% and the Z score is recorded as -0.25.

For the compound `COc1ccccc1N1CCN(C(=O)[C@H]2CC(=O)N(C3CC3)C2)CC1`, the “% Inhibition” value was 0% and the Z score is listed as -0.05.

`CCN1CCN(CCCNc2nc(-c3ccccc3F)no2)CC1`: the “% Inhibition” value is -13% and the Z score is listed as 2.37.

For `CCn1ccc2c([C@H]3CC(=O)NCc4nc5ccc(C)cn5c43)cccc21`, the “% Inhibition” value was -2% and the Z score stood at 0.21.

As to `Cc1nocc1C(=O)NC1CC[C@H]2CN(Cc3ccccc3)C[C@H]2C1` (stereo partly specified), the “% Inhibition” value was -12% and the Z score worked out at 1.42.

`O=C(NC1CCCCC1)c1nc[nH]c1C(=O)NCC1CC1`: the “% Inhibition” value is -8% and the Z score came to 1.4.

Consider `CC(=O)N(C(C)=O)c1c(-c2ccccc2)nnn1-c1ccccc1`, for which the “% Inhibition” value is given as 35% and the Z score was -1.

As to `Cn1cccc1CNc1nnc([C@@H]2CCCO2)o1`, the “% Inhibition” value was -5% and the Z score is recorded as 0.81.

On to `O=C(Nc1cc(F)ccc1F)N1CCN(Cc2nc3cccnc3n2-c2cccc(F)c2)CC1`, for which the “% Inhibition” value came to 3% and the Z score is on record as -0.43.

`CCOCC(=O)NC[C@H]1CCCN1c1ccccc1`: the “% Inhibition” value is given as -10% and the Z score is 1.93.

As for `ONc1ccccc1-c1nc(-c2ccc(Cl)cc2)no1`, the “% Inhibition” value is reported as -2% and the Z score was 0.25.

Regarding `C[C@@H](O)[C@@H](CO)NC(=O)c1ccnc(C2CC2)n1`, the “% Inhibition” value is 14% and the Z score is -1.63.

`Cc1nc(C(F)(F)F)ccc1S(N)(=O)=O`: the “% Inhibition” value is on record as -5% and the Z score is on record as 0.59.

In the case of `CS(=O)(=O)N1CCC(C(=O)Nc2cnccc2-c2ccccc2)CC1`, the “% Inhibition” value is listed as -16% and the Z score is listed as 2.3.

Regarding `Cn1cc(C(=O)N2CCOC[C@@H]2Cc2c[nH]c3ccccc23)c(C(C)(C)C)n1`, the “% Inhibition” value is listed as -12% and the Z score came to 1.

On to `Cc1ccc(NC(=O)[C@H]2CC(=O)N(c3n[nH]c4cccc(F)c34)C2)cc1C`, for which the “% Inhibition” value is recorded as 0% and the Z score is 0.02.

`CCc1nnc(CNC(=O)NC[C@H]2CCCC[C@H]2C(F)(F)F)o1`: the “% Inhibition” value is listed as -5% and the Z score is 1.05.

For `Cc1ccc(C(=O)N2CC[C@H](C(=O)Nc3cn[nH]c3)C2)c(Cl)c1`, the “% Inhibition” value came out at 0% and the Z score is reported as 0.04.

Take `CO[C@@H](CNC(=O)Nc1ccccc1C(F)(F)F)c1ccco1`: the “% Inhibition” value is on record as 12% and the Z score was -1.56.

Regarding `Cc1cc(C)nc(O[C@H]2CCCN(C(=O)c3cccc(C#N)c3)C2)n1`, the “% Inhibition” value was 2% and the Z score was -0.32.

As for `COC[C@H]1CN(C(C)=O)CC12CCN(Cc1ccc(Cl)cc1F)CC2`, the “% Inhibition” value is listed as -9% and the Z score is 1.01.

Consider `C[C@H](OC(=O)COc1ccccc1)C(=O)Nc1ncnc2[nH]cnc12`, for which the “% Inhibition” value was -13% and the Z score stood at 1.89.

Take `CC(NC(=O)N[C@@H]1C=C[C@H](CO)C1)c1ccncc1F` (stereo partly specified): the “% Inhibition” value turned out to be 37% and the Z score was -5.39.

With `Cc1nc2ccccc2c(N2CCC(c3nncn3C)CC2)c1C`, the “% Inhibition” value is -10% and the Z score stood at 1.67.

As for `Cc1ccc(NC(=O)c2cccc(F)c2)c(-c2nc3ccccc3nc2O)c1`, the “% Inhibition” value was -15% and the Z score was 1.64.

As to `Fc1ccc(-c2noc(-c3ccc(N4CCC5(CC4)OCCO5)nc3)n2)cc1`, the “% Inhibition” value is -10% and the Z score is given as 1.19.

On to `Cc1nc2ccnn2cc1C(=O)N1C[C@@H](C)CN(C)c2ccccc21`, for which the “% Inhibition” value is reported as -4% and the Z score is 0.6.

Consider `Cn1c(NC(=O)c2ccc(F)cc2)c(-c2cccc3ccccc23)c(=O)c2ccccc21`, for which the “% Inhibition” value is recorded as -3% and the Z score was found to be 0.41.

The record behind these values is ChEMBL document CHEMBL4888484, “Replenishing the malaria drug discovery pipeline: Screening and hit evaluation of the MMV Hit Generation Library 1 (HGL1) against asexual blood stage Plasmodium falciparum ,using a nano luciferase reporter read-out” (2022).
